# The whole screen tested about 410,000 compounds, of which about 6,400 (1.6%) were called active. This list was built around the results that the source calls inconclusive (neither active nor inactive); the mix of calls is not that of the screen. The call rests on the fitted dose curve; in most records, active means well fitted inhibition curve with a large enough effect; inconclusive means small, poorly fitted or top-dose-only effect; inactive means no such curve, though single readings can be large or run the other way. Potencies of inconclusive entries are left out as doubtful fits.
# Biological target: Glucagon-like peptide 1 receptor (Homo sapiens) (UniProt P43220)
# Sequence of UniProt P43220 (P43220 whole entry, looked up): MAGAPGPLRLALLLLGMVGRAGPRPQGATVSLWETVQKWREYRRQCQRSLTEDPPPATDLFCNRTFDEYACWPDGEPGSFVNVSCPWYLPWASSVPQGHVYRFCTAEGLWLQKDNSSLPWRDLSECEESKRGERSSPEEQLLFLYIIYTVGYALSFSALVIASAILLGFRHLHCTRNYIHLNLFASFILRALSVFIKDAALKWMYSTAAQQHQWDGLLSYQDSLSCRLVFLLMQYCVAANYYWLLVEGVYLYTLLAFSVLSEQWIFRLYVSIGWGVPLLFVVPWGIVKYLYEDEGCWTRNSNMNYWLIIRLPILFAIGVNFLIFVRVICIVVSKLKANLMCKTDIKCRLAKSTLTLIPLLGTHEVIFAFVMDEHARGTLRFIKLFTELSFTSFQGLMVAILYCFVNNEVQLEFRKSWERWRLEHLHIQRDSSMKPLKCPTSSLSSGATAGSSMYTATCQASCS
# Assay: qHTS of GLP-1 Receptor Inverse Agonists (Inhibition Mode); further: nearly all actives have a fitted effect of over 55% in size
# Conditions: HEK293 GLP-1R CRE-luciferase, luminescence, 24 h, GLP-1R form is constitutively active; activity change, negative = inhibition: at 38.3 µM (top of the series) unless noted
# How it was run: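 Using stably transfected HEK293 (constitutively active GLP-1R, cAMP-luciferase reporter), compounds were incubated 24 hr and luciferase measured by luminescence.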
# On the % scale 0 is the no-effect control and ±100 the full control effect; potency means the concentration at half of the fitted maximal effect; tags describe the fitted curve by direction and shape.
SMILES,Potency,"activity change, negative = inhibition"
COc1ccc(CCC2=NCCN2C(CC(C)C)c2nc3ccccc3[nH]2)cc1 (stereo not given),"inconclusive [inhibitor, single point]",
Cc1ccc(NC(=S)N(CCCN2CCCC2)Cc2cccn2Cc2ccc(Cl)cc2)cc1Cl,"inconclusive [inhibitor, full curve, poor fit]",
Cc1ccccc1NC(C)C(=O)N/N=C/c1c[nH]c2ccccc12 (stereo not given),"inconclusive [inhibitor, single point]",
Cc1ccc(NC(=O)c2cc(S(=O)(=O)NCCC3=CCCCC3)ccc2F)cc1,"inconclusive [inhibitor, partial curve, poor fit]",
Cc1ccc(S(=O)(=O)N2[C@@H](c3ccc(Cl)cc3)C(C(=O)O)=CC[C@H]2c2cccs2)cc1,"inconclusive [inhibitor, partial curve, poor fit]",
CCc1ccc(NC(=O)CN(CC(=O)Nc2ccc(CC)cc2)CC(C)O)cc1 (stereo not given),"inconclusive [inhibitor, single point]",
C=C(C)COc1ccc(-c2n[nH]c(C)c2-c2ccc(OC)c(OC)c2)c(O)c1,"inconclusive [inhibitor, partial curve, poor fit]",
Cc1cccc(N2CCN(C(=O)C3CCN(c4nnc(-n5cccc5)s4)CC3)CC2C)c1 (stereo not given),"inconclusive [inhibitor, partial curve, poor fit]",
O=C1CCN(Cc2ccccc2)S(=O)(=O)c2ccc(C(F)(F)F)cc21,"inconclusive [inhibitor, single point]",
Cc1ccc(NC(=O)C(Cc2ccccc2)NS(=O)(=O)c2cccc3nsnc23)c(C)c1 (stereo not given),,inactive: -24.4%
Cc1ccc(C)c(C(=O)Nc2cc(C)nn2-c2nc(C)cc(C)n2)c1,"inconclusive [inhibitor, full curve, poor fit]",
CCOc1ccc([C@@H]2CC=C(C(=O)O)[C@H](c3ccc(Cl)cc3)N2S(=O)(=O)c2ccc(C)cc2)cc1,"inconclusive [inhibitor, partial curve, poor fit]",
CCOc1cc(CNCc2ccccc2)ccc1OCc1ccc(Cl)cc1,active: 11.2 µM,
COc1ccc(Cc2nc3c4c(ncn3n2)Oc2ccc3ccccc3c2C4c2ccc(OC)c(OC)c2)cc1 (stereo not given),"inconclusive [inhibitor, full curve, poor fit]",
COc1ccccc1NC(=S)N1CCN(C(c2ccccc2)c2ccccc2)CC1,"inconclusive [inhibitor, partial curve, poor fit]",
NNC(=O)CN(CCc1ccccc1)S(=O)(=O)c1ccc(Cl)cc1,"inconclusive [inhibitor, partial curve, poor fit]",
COCCCN(Cc1ccco1)C(=O)Cn1ncc2c([nH]c3ccccc32)c1=O,"inconclusive [inhibitor, single point]",
Cc1ccc(NC(=O)c2ncn(CCCN3CCN(Cc4cccc5ccccc45)CC3)n2)cc1C,"inconclusive [inhibitor, partial curve, poor fit]",
Cc1cc(C)c(C)c(OCCOCCN2CCN(C)CC2)c1,"inconclusive [inhibitor, single point]",
CC1CCCCN1S(=O)(=O)c1ccc2c(c1)oc(=O)n2CC(=O)Nc1ccc(Cl)cc1 (stereo not given),,inactive: 7.78%

SMILES,Potency,"activity change, negative = inhibition"
O=C1NC(Cc2c[nH]c3ccccc23)C(=O)N1Cc1cccc2ccccc12 (stereo not given),"inconclusive [inhibitor, partial curve, poor fit]",
CNC(=O)c1c(NC(=O)c2cccc(C)c2)sc2c1CCC2,"inconclusive [inhibitor, single point]",
COc1ccc(-c2cc3ccccc3n2CC(O)CN2CCC(C)CC2)cc1 (stereo not given),"inconclusive [inhibitor, partial curve, poor fit]",
COCCN1C(=O)COc2ccccc2C1C(=O)NCc1ccccc1 (stereo not given),,inactive: 6.27%
COc1cccc(C(=O)C(=O)c2cccc(OC)c2OC)c1OC,"inconclusive [inhibitor, single point]",
COc1ccccc1C(CNC(=O)c1oc2ccccc2c1C)N1CCCC1 (stereo not given),"inconclusive [inhibitor, full curve]",
COc1cccc(Nc2nc(-c3ccccc3)c3cc(C)ccc3n2)c1,"inconclusive [inhibitor, partial curve, poor fit]",
CN(Cc1ccccc1)C(NC(=O)c1ccccc1)C(Cl)(Cl)Cl (stereo not given),"inconclusive [inhibitor, partial curve, poor fit]",
CCOC(=O)C1=C(NC(=S)NC(=O)c2ccccc2)c2ccccc2CC1(C)C,"inconclusive [inhibitor, partial curve, poor fit]",
CCOCCC(=O)Nc1ccc2c(c1)c(=O)n(C)n2-c1ccc2ccccc2c1,"inconclusive [inhibitor, full curve, poor fit]",
CN1OC[C@@H]2CN[C@H](c3ccc(-c4cccc(F)c4)cc3)C[C@@H]21,,inactive: -26.7%
Cc1ccccc1C(=O)NCCOc1ccccc1Cl,"inconclusive [inhibitor, single point]",
Cc1ccc(Cl)cc1N1CCN(C(=O)c2ccc(C)c(-n3c(C)nc4cccnc43)c2)CC1,"inconclusive [inhibitor, partial curve, poor fit]",
CCCCCCN1C[C@H](n2cc(COC(=O)c3ccccc3)nn2)[C@@H](O)C[C@@H]1c1ccc(Cl)cc1,"inconclusive [inhibitor, partial curve, poor fit]",
CCOc1ccc(Br)cc1CC(=O)O,,inactive: 0.314%
CCc1nc2ccc(C(=O)N3CCN(c4ccc(Cl)cc4)CC3)cc2nc1CC,"inconclusive [inhibitor, partial curve, poor fit]",
Cc1cc(C(F)F)n2nc(C(=O)Nc3ccc(F)c(Cl)c3)nc2n1,,inactive: -8.66%
COc1ccc(NC(=S)N(CCc2c(C)[nH]c3ccccc23)Cc2cccnc2)cc1,"inconclusive [inhibitor, partial curve, poor fit]",
COc1cccc(NC(=S)N(CCN(C)C)Cc2cccs2)c1,"inconclusive [inhibitor, partial curve]",
COc1ccc2c(C)c(CCC(=O)NCCc3ccc(Cl)cc3)c(=O)oc2c1,"inconclusive [inhibitor, single point]",

SMILES,Potency,"activity change, negative = inhibition"
Nc1ccccc1SC1CC(=O)N(c2ccc(Cl)c(Cl)c2)C1=O (stereo not given),"inconclusive [inhibitor, single point]",
COCc1cc(C)nc2oc(C(=O)c3ccccc3)c(N)c12,,inactive: 17.2% [at 7.66 µM]
O=C(O)c1cc(Cl)c2ccccc2c1O,"inconclusive [inhibitor, single point]",
Cc1ccccc1N=C1SC(CC(=O)Nc2ccc3ccccc3c2)C(=O)N1Cc1ccccn1 (stereo not given),"inconclusive [inhibitor, partial curve, poor fit]",
CCc1cccc(CC)c1NC(=O)COc1ccccc1C(=O)c1cc(C#N)c(=O)n(C2CCCCC2)c1,"inconclusive [inhibitor, single point]",
COc1cccc(NC(=O)/C(C#N)=C\c2cn(Cc3ccc(Cl)cc3)c3ccccc23)c1,"inconclusive [inhibitor, partial curve, poor fit]",
CCN(CC)CCn1c(SCC(=O)Nc2cccc(OC)c2)nc2c(sc3ccccc32)c1=O,"inconclusive [inhibitor, single point]",
Cc1cccc([C@H]2[C@@H]3C=CCC[C@@H]3C(=O)N2Cc2ccccc2)c1,"inconclusive [inhibitor, partial curve, poor fit]",
C=CCc1ccccc1OCC(O)CN1CCN(CCN2C(=O)c3cccc4cccc(c34)C2=O)CC1 (stereo not given),"inconclusive [inhibitor, partial curve, poor fit]",
O=C(Cc1ccc(Cl)cc1Cl)NC1CCCCCC1,"inconclusive [inhibitor, partial curve, poor fit]",
COc1ccc(C(=O)C2CCCN(C(=O)CCNC(C)=O)C2)cc1OC (stereo not given),,inactive: 7.42%
CCn1nc(C)cc1C(=O)NC1CC(C)(C)Cc2c1cnn2-c1cccc(F)c1 (stereo not given),"inconclusive [inhibitor, single point]",
CCCSc1nc(N2CCOCC2)c2c(c1C#N)CCCC2,"inconclusive [inhibitor, single point]",
CCc1ccc(-c2nn(CC(=O)NC3CCCCC3)c3c2cnc2ccc(OC)cc23)cc1,,inactive: 7.96%
Cc1nn(C(=O)CN2C(=O)c3ccccc3C2=O)c(C)c1Br,"inconclusive [inhibitor, partial curve, poor fit]",
COc1ccc(CCNC(=O)c2ccc([N+](=O)[O-])cc2)cc1,"inconclusive [inhibitor, single point]",
COc1ccccc1CNc1ncc(-c2ccc(F)cc2)n1C,"inconclusive [inhibitor, single point]",
CCC1CCCCN1C(=S)Nc1cccc(S(=O)(=O)N(C)C)c1 (stereo not given),"inconclusive [inhibitor, full curve, poor fit]",
O=C(C[C@H]1C(=O)N(CCc2ccccc2)C[C@@H]1Cc1ccccc1)Nc1ccccc1,,inactive: 10.8%
CCN(CC)C(=O)NC(c1ccc(C)c(F)c1)C(Cl)(Cl)Cl (stereo not given),"inconclusive [inhibitor, partial curve, poor fit]",

# From PubChem BioAssay AID624417 (National Center for Advancing Translational Sciences (NCATS), 2012)
